# Experimental data taken from PubChem BioAssay AID1508642 (National Center for Advancing Translational Sciences (NCATS), 2021).
# In all, about 43,000 compounds went through this assay and about 200 (0.47%) were called active. Not shown: some 12% with an inconclusive outcome. The call rests on the fitted dose curve; in most records, active means well fitted cell-killing curve with a large enough effect; inconclusive means small, poorly fitted or top-dose-only effect, or effect the other way; inactive means flat fitted curve, though single readings scatter. This is one part of the list.
# Test: Cell viability qHTS assay in S16 Pmp22-F2sN cells; further: nearly all actives have a fitted effect of over 65% in size
# Details: S16 Pmp22-F2sN Schwann cells viability, CellTiter-Glo, 24 h; series mostly up to 57.5 µM; activity change, negative = cytotoxicity: at the top concentration
# Summary of the method: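 Used to flag compounds lowering reporter output through toxicity, this quantitative HTS measures ATP-based CellTiter-Glo luminescence in S16 Pmp22-F2sN Schwann cells after 24 h compound exposure at 37C.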
# On the % scale 0 is the no-effect control and ±100 the full control effect.
row,Structure (SMILES),"activity change, negative = cytotoxicity"
1,CCOc1ccc(NC(=O)Cn2cc(C(=O)c3ccc(CC)cc3)c(=O)c3cc(C)ccc32)cc1,inactive: 0.259%
2,Cn1c(=O)c2c(-c3ccccc3)n3c4ccccc4nc(-c4ccccc4)c3c2n(C)c1=O,inactive: -11.6%
3,COC(=O)c1cc2occc2n1Cc1nc(-c2ccccc2F)oc1C,inactive: -3%
4,COc1ccc(C(=O)NCC(c2cccnc2)N2CCc3ccccc3C2)cc1OC (stereo unspecified),inactive: -7.6%
5,COc1ccc(S(=O)(=O)c2nnn(-c3cc(Cl)c(OC)cc3OC)c2C)cc1,inactive: 8.13%
6,O=C(CSc1nc2c([nH]c3ccccc32)c(=O)n1-c1ccc(F)cc1)NCc1ccccc1,inactive: 19.4%
7,CCOCCCn1c(SCC(=O)Nc2ccc(C(C)C)cc2)nc2c(sc3ccccc32)c1=O,inactive: 7.97%
8,COc1ccc(N2CCN(C(=O)CCNS(=O)(=O)c3ccc4c(c3)CCN4C(=O)C3CC3)CC2)cc1,inactive: -12.5%
9,COc1ccc(CNC(=O)c2ccc(Cn3c(=O)c4cccn4c4cccnc43)cc2)cc1OC,inactive: 1.06%
10,CCOCCCNC(=O)NC(CCC(C)C)c1c(-n2cccc2)sc2c1CCN(C)C2 (stereo unspecified),inactive: 8.77%
11,O=C(NCc1cccc(F)c1)C1CCN(C(=O)c2sccc2-n2cccc2)CC1,inactive: 4.16%
12,O=C(Nc1cc(NC(=O)c2ccccc2Cl)ccc1Cl)c1ccccc1,inactive: -18.9%
13,CC(C)(C)C(=O)CSc1nc2ccsc2c(=O)n1Cc1ccccc1F,inactive: -15.5%
14,Cc1ccc(C)c(-c2nc(Cn3c(=O)cc(-c4ccccc4)c4c(C)nn(C)c43)c(C)o2)c1,inactive: -2.28%
15,CN1CCN(CCCNC(=O)c2cnn(-c3ccccc3)c2-n2cccc2)CC1,inactive: 7.45%
16,O=c1c2sc3ccccc3c2n(Cc2cccc(C(F)(F)F)c2)c(=O)n1Cc1ccco1,inactive: -2.15%
17,NS(=O)(=O)c1ccc(CCNC(=O)c2nc(SCc3ccccc3F)ncc2Cl)cc1,inactive: -0.22%
18,COc1cccc(C2C(C(=O)Nc3ccccc3OC)=C(C)Nc3nc4ccccc4n32)c1 (stereo unspecified),inactive: 4.26%
19,CCc1ccccc1Nc1ncnc2c1nc1n2CCCC1,inactive: 4.78%
20,Cc1cc(=O)c2cc(C(=O)Nc3ccccc3)ccc2[nH]1,inactive: 6.22%
21,Cc1ccc2cccc(NC(=O)c3ccc(-c4ccc(Br)cc4)o3)c2n1,inactive: 5.19%
22,CCc1ccc(-n2c(-c3ccccc3)c(C)n3c4c(=O)n(C)c(=O)n(C)c4nc23)cc1,inactive: 4.6%
23,COc1cccc(N2C(=O)N(CC(=O)NCc3cccc(OC)c3OC)c3ccccc3S2(=O)=O)c1,inactive: 25.7%
24,Cc1ccc(-c2csc(/C(C#N)=C/c3ccccc3Cl)n2)cc1,inactive: 5.6%

row,Structure (SMILES),"activity change, negative = cytotoxicity"
1,Cc1cn2c(=O)cc(COc3ccccc3NC(=O)c3ccccc3C)nc2s1,inactive: 14.4%
2,COc1ccccc1N1CCN(C(=O)CCS(=O)(=O)c2cc(Br)cc3c2N(C(=O)C2CC2)CC3)CC1,inactive: -2.78%
3,CCOC(=O)c1c(C)oc2nc(C)nc(N3CCN(c4ccccc4)CC3)c12,inactive: 7.98%
4,O=C(Nc1ccc(F)cc1)c1cccn1-c1nnc(N2CCCCC2)s1,inactive: 2.15%
5,COc1ccc2oc(=O)c(C(=O)NCCc3c(C)[nH]c4ccc(Br)cc34)cc2c1,inactive: 10%
6,O=C(CSc1nnc(CNC(=O)c2ccccc2)n1-c1cccc(Cl)c1)Nc1ccccc1F,inactive: -6.81%
7,CCn1c(SCc2ccccc2Cl)nc(=O)c2c(C(=O)OC)cc(C3CC3)nc21,inactive: -0.396%
8,CNC(=O)COc1ccc(NC(=O)c2ccc(-c3nn(C)c(=O)c4ccccc34)cc2)cc1,inactive: 26.5%
9,Cc1nn(S(=O)(=O)c2ccc(Cl)cc2)c(C)c1S(=O)(=O)N1CCCCCC1,inactive: -2.68%
10,CC(=O)Nc1nonc1-c1nnc(SCc2ccc(Cl)cc2)n1C,inactive: -0.164%
11,CCOC(=O)c1c(NC(=O)c2cc(=O)c3c(C)cc(C)cc3o2)sc(C(C)=O)c1C,inactive: -0.561%
12,Cc1cc(C)c2c(-n3cccc3)c(C(=O)NCCCN3CCCCC3C)sc2n1 (stereo unspecified),inactive: -0.301%
13,CCCOc1ccc(C(=O)Nc2cc(-c3nc4cc(C)cc(C)c4o3)ccc2C)cc1,inactive: 4.93%
14,Cc1ccc(-c2noc(-c3ccc(N4CCCCC4)c([N+](=O)[O-])c3)n2)cc1,inactive: 8.27%
15,CC(C)NC(=O)C1CCN(C(=O)N2CCOc3ccc(Cl)cc32)CC1,inactive: 4.83%
16,Clc1ccc(CCNC(c2nnc(-c3ccccc3)o2)c2ccccc2Cl)cc1 (stereo unspecified),inactive: -21.6%
17,COc1cc(NC(=O)CCn2cnc3ccccc3c2=O)cc(OC)c1,inactive: -11.3%
18,CCOC(=O)c1ccccc1NC(=O)n1ncc2cc(Cl)ccc21,inactive: -2.42%
19,CCc1cccc(C)c1NC(=O)c1cc(S(=O)(=O)N2CCOCC2)cn1C,inactive: -1.68%
20,CCCCSCCCNC(=O)c1cn(CC)c2ccc(S(=O)(=O)N3CCCCCC3)cc2c1=O,inactive: -6.17%
21,COc1ccc(OCCn2c(C)nc3cc(C)c(C)cc32)cc1,inactive: -15.7%
22,CCOc1cccc(C(=O)Nc2ccc3oc(-c4cccnc4)nc3c2)c1,inactive: -3.7%
23,COc1ccc(-c2c(C)nn3c(N4CCN(c5ccccc5)CC4)cc(C)nc23)cc1OC,inactive: -12.7%
24,COc1ccc(NC(=O)CC2C(=O)N(c3ccc(F)cc3)C(=O)N2Cc2ccc3c(c2)OCO3)cc1 (stereo unspecified),inactive: 6.1%

row,Structure (SMILES),"activity change, negative = cytotoxicity"
1,CCCn1c(=N)c(C(=O)NC2CCCC2)cc2c(=O)n3cccc(C)c3nc21,inactive: 3.2%
2,COc1ccc(/C=C(/C#N)c2nc(-c3ccc(-c4ccccc4)cc3)cs2)cc1OC,inactive: 0.795%
3,CCOC(=O)c1cccc(NC(=O)Cn2c(=O)nc(-c3ccccc3F)c3cc(Cl)ccc32)c1,inactive: 6.24%
4,CCn1c(=O)c2cc(C(=O)N(CC(C)C)CC(C)C)sc2c2ccccc21,inactive: -9.61%
5,CCOc1ccc(CCNC(=O)c2csc3c2CCCCC3)cc1,inactive: -18.9%
6,COc1cccc(CNC(=O)CCCN2C(=O)CCn3nc(-c4cccn4C)cc32)c1,inactive: -10%
7,CCN(C(=O)CSc1nc2ccccc2n1CC(=O)NCc1ccc(OC)cc1)c1ccccc1,inactive: 9.83%
8,CCOC(=O)c1cc(-c2ccccc2)n(CCC(=O)NC2CCCCC2)c1C,inactive: -0.505%
9,Cc1ccc2nc(CSc3nnc(NC(=O)c4cccc(Br)c4)s3)cc(=O)n2c1,inactive: 15.8%
10,CCOC(=O)c1ccc(NC(=O)CN2c3ccccc3S(=O)(=O)c3ccccc32)cc1,inactive: 3.33%
11,Cc1ccc(CNc2ncnc3c2nc2n3CCCC2)cc1,inactive: -2.78%
12,Cc1cc(C)cc(Nc2cc(C)nc3nncn23)c1,inactive: 2.81%
13,Cc1cccc(-c2nc3scc(CCNC(=O)c4ccc(Br)o4)n3n2)c1,inactive: 0.621%
14,CCC(CC)C(=O)Nc1ccc(-c2cn3cccnc3n2)cc1,inactive: 28%
15,CNC(=O)C1CCC(Cn2c(=O)c3sccc3n(CC(=O)NCc3cccc(OC)c3)c2=O)CC1 (stereo unspecified),inactive: -1.66%
16,Cc1ccc(Nc2nnc(-c3cc4c(ccc5ccccc54)oc3=O)s2)cc1,inactive: 4.7%
17,COc1cccc(C(=O)N2CCc3c([nH]c4ccccc34)C2c2ccc(SC)cc2)c1 (stereo unspecified),inactive: 12.5%
18,COc1ccc(CNC(=O)CN2C(=O)COc3ccc(S(=O)(=O)NC4CCCC4)cc32)cc1,inactive: 1.07%
19,CCOC(=O)N1CCN(c2ncc3c(n2)CC(c2ccccc2O)CC3=O)CC1 (stereo unspecified),inactive: -4.8%
20,COc1ccc(/C=C\c2onc(C)c2S(=O)(=O)N2CCC(C(=O)Nc3cccc(Cl)c3)CC2)cc1,inactive: -15.4%
21,COc1ccc(CCNC(=O)CCc2c(C)nc3cc(-c4ccccc4OC)nn3c2C)c(OC)c1,inactive: -12.5%
22,CCc1cccc(C)c1NC(=O)CN(C)S(=O)(=O)c1cccc2nsnc12,inactive: -22.3%
23,Cc1ccc(N2CCN(c3nc4c(S(=O)(=O)c5ccc(C)c(C)c5)nnn4c4ccccc34)CC2)c(C)c1,inactive: -0.924%
24,Cc1c(C(=O)N(Cc2ccc(N(C)C)cc2)CC2CCCO2)oc2ccc(Br)cc12 (stereo unspecified),inactive: 3.46%

row,Structure (SMILES),"activity change, negative = cytotoxicity"
1,CCOc1ccc2oc(=O)cc(CN3CCN(c4ccc(Cl)cc4)CC3)c2c1,inactive: -19.7%
2,CCc1c(C)c2ccc(O)c(CN3CCN(c4ccccc4)CC3)c2oc1=O,inactive: 9.21%
3,CCOC(=O)c1c(NC(=O)COc2ccc(Cl)cc2C)sc(C(C)=O)c1C,inactive: 12.4%
4,Cc1ccc(S(=O)(=O)c2cn(C)c3cc(N4CCCCC4)c(F)cc3c2=O)cc1,inactive: -18.6%
5,COc1ccc(C)cc1NC(=O)N1CCC(CN2CCC(C)CC2)CC1,inactive: -0.306%
6,CCOC(=O)N1CCN(C(=O)CN(c2cc(C)ccc2OC)S(=O)(=O)c2ccc(C)cc2)CC1,inactive: -1.26%
7,Cc1ccc(-c2nnc(Nc3cccc(C(F)(F)F)c3)c3ccccc23)cc1S(=O)(=O)N1CCOCC1,inactive: -21.6%
8,CC(C)(C)c1ccc(-c2noc(CCC(=O)Nc3cccc(Cl)c3)n2)cc1,inactive: 1.59%
9,Cc1ccc(-n2c(SCC(N)=O)nc3c([nH]c4ccccc43)c2=O)cc1,inactive: 13.5%
10,Cc1cncn1CCc1nc2c3ccccc3nc(SCC(=O)Nc3ccccc3F)n2n1,inactive: -8.49%
11,Cc1ccc(Cn2c(C)c(CNC(C)c3ccccc3)c(C(=O)O)c2C)cc1 (stereo unspecified),inactive: 10.9%
12,CC1CCN(S(=O)(=O)c2nnc(NC(=O)c3cccc(F)c3)s2)CC1,inactive: -23.7%
13,COC(=O)c1sc2cccc(F)c2c1S(=O)(=O)N1CCN(c2ccc(C)cc2C)CC1,inactive: -5.38%
14,COc1nc(-c2ccc(C)cc2)ccc1-c1noc(-c2ccc(C(C)(C)C)cc2)n1,inactive: -14.4%
15,COc1ccc(OC)c(S(=O)(=O)NCCc2csc3nc(-c4ccccc4)nn23)c1,inactive: 2.82%
16,Cc1cccc(N2CCN(C(=O)c3ccc4c(c3)c(C)c(C)n4C)CC2C)c1 (stereo unspecified),inactive: -4.32%
17,Cc1ccc(NC(=O)c2cc(S(=O)(=O)N3CCCC3)c[nH]2)c(C)c1,inactive: -13.7%
18,COc1ccccc1N1CCN(c2cc(C)nc3nc(-c4ccc(Cl)cc4)nn23)CC1,inactive: 0.907%
19,CCc1ccc(-n2nc(C)c3c(C(=O)Nc4cc(C)ccc4C)cc(C)nc32)cc1,inactive: -2.08%
20,CCOc1ccc(N(CC)S(=O)(=O)N2CCCC(C(=O)NCCc3ccccc3OC)C2)cc1 (stereo unspecified),inactive: -19%
21,CC1CCCCN1C(=O)CSc1nnc(-c2ccccc2Cl)o1 (stereo unspecified),inactive: 0.394%
22,COc1ccccc1CNC(=O)Cn1c(=O)ccc2cc(S(=O)(=O)N3CCCC3)ccc21,inactive: -3.41%
23,Cc1cccc(Oc2coc3cc(OCC(=O)NC4CCCCC4)ccc3c2=O)c1,inactive: -16.1%
24,COc1ccc(-c2cn3nc(N4CCC(C(=O)Nc5ccc(C)cc5)CC4)sc3n2)cc1,inactive: -8.48%
